Test results: the supplement of paper PMC4967469
The IC50 comes from the fitted curve, where viability falls to half of the control; a limit (>, <) means that the fit lies beyond the doses tested. AUC, from the same fit, is the share of area under the viability curve across the 256-fold dose range; it is 1 without any effect and falls as sensitivity rises. For some of these results: The top dose, if marked as inferred, was derived from the fitted curves, not read from the paper.

What was measured:
Assay in all cases: Viability of human cancer cell lines after 72 h of drug (GDSC screen)
BMX-IN-1 (QL-XII-61) = compound: C=CC(=O)Nc1cc(-n2c(=O)ccc3cnc4ccc(-c5ccc(NS(C)(=O)=O)cc5)cc4c32)ccc1C [BMX-IN-1 (QL-XII-61)]; details: top dose 10 µM; top dose inferred
Experimental: (§1)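 Human cancer cell lines in 384-well plates, medium with 10% serum, drug for 72 h over a 256-fold dose range (nine 2-fold or five 4-fold steps up to the top dose). Adherent lines were fixed and stained with the nucleic acid dye Syto60, suspension lines read with resazurin; signal relative to control wells, capped at 0 and 100%. One two-parameter sigmoid per drug and line, fitted in a mixed model over all curves with the slope shared within a line.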

17-AAG = compound: C=CCNC1=C2C[C@@H](C)C[C@H](OC)[C@H](O)[C@@H](C)/C=C(\C)[C@H](OC(N)=O)[C@@H](OC)/C=C\C=C(/C)C(=O)NC(=CC1=O)C2=O [17-AAG]; details: top dose 1 µM
Experimental: as §1

BIX02189 = compound: CN(C)Cc1cccc(N=C(c2ccccc2)c2c(O)[nH]c3cc(C(=O)N(C)C)ccc23)c1 [BIX02189]; details: top dose 20 µM; top dose inferred
Experimental: as §1

Dimethyloxalylglycine = compound: COC(=O)CNC(=O)C(=O)OC [Dimethyloxalylglycine]; details: top dose 4000 µM; top dose inferred
Experimental: as §1

Doxorubicin = compound: COc1cccc2c1C(=O)c1c(O)c3c(c(O)c1C2=O)C[C@@](O)(C(=O)CO)C[C@@H]3O[C@H]1C[C@H](N)[C@H](O)[C@H](C)O1 [Doxorubicin]; details: top dose 1.024 µM
Experimental: as §1

OSI-027 = compound: COc1cccc2cc(-c3nc([C@H]4CC[C@H](C(=O)O)CC4)n4ncnc(N)c34)[nH]c12 [OSI-027]; details: top dose 20 µM
Experimental: as §1

Vismodegib = compound: CS(=O)(=O)c1ccc(C(=O)Nc2ccc(Cl)c(-c3ccccn3)c2)c(Cl)c1 [Vismodegib]; details: top dose 10 µM; top dose inferred
Experimental: as §1

VX-11e = compound: Cc1cnc(Nc2ccc(F)cc2Cl)nc1-c1c[nH]c(C(=O)N[C@H](CO)c2cccc(Cl)c2)c1 [VX-11e]; details: top dose 5.12 µM; top dose inferred
Experimental: as §1

TG101348 = compound: Cc1cnc(Nc2ccc(OCCN3CCCC3)cc2)nc1Nc1cccc(S(=O)(=O)NC(C)(C)C)c1 [TG101348]; details: top dose 10.24 µM
Experimental: as §1

UNC1215 = compound: O=C(c1ccc(C(=O)N2CCC(N3CCCC3)CC2)c(Nc2ccccc2)c1)N1CCC(N2CCCC2)CC1 [UNC1215]; details: top dose 1 µM; top dose inferred
Experimental: as §1

CCT018159 = compound: CCc1cc(-c2n[nH]c(C)c2-c2ccc3c(c2)OCCO3)c(O)cc1O [CCT018159]; details: top dose 10 µM; top dose inferred
Experimental: as §1

Cell Line | AUC (BMX-IN-1 (QL-XII-61)) | IC50 (BMX-IN-1 (QL-XII-61)) [µM] | AUC (17-AAG) | IC50 (17-AAG) [nM] | AUC (BIX02189) | IC50 (BIX02189) [µM] | AUC (Dimethyloxalylglycine) | IC50 (Dimethyloxalylglycine) [µM] | AUC (Doxorubicin) | IC50 (Doxorubicin) [nM] | AUC (OSI-027) | IC50 (OSI-027) [nM] | AUC (Vismodegib) | IC50 (Vismodegib) [µM] | AUC (VX-11e) | IC50 (VX-11e) [µM] | AUC (TG101348) | IC50 (TG101348) [µM] | AUC (UNC1215) | IC50 (UNC1215) [nM] | AUC (CCT018159) | IC50 (CCT018159) [µM]
ALL-SIL (T-cell leukaemia, suspension) | 0.892 | 8.89 | 0.988 | > 1000 | 0.575 | 1.94 | 0.255 | 56.3 | 0.457 | 49.7 | 0.3 | 376 | 0.984 | > 10 | 0.643 | 0.749 | 0.446 | 0.465 | 0.987 | > 1000 | – | –
CHSA0011 (chondrosarcoma, adherent) | 0.958 | > 10 | 0.813 | 835 | 0.911 | > 20 | 0.814 | 3390 | 0.844 | > 1020 | 0.826 | 19400 | 0.98 | > 10 | 0.96 | > 5.12 | 0.833 | > 10.2 | 0.975 | > 1000 | – | –
COLO-783 (melanoma, adherent) | 0.99 | > 10 | 0.956 | > 1000 | 0.989 | > 20 | 0.933 | > 4000 | 0.944 | > 1020 | 0.975 | > 20000 | 0.979 | > 10 | 0.967 | > 5.12 | 0.98 | > 10.2 | 0.981 | > 1000 | – | –
DMS-273 (small cell lung carcinoma, adherent) | 0.983 | > 10 | 0.715 | 264 | 0.91 | > 20 | 0.274 | 54.5 | 0.496 | 62.4 | 0.154 | 98.5 | 0.917 | > 10 | 0.887 | > 5.12 | 0.713 | 2.67 | – | – | 0.941 | > 10
EN (endometrium, adherent) | 0.982 | > 10 | 0.879 | > 1000 | 0.956 | > 20 | 0.715 | 1210 | 0.623 | 153 | 0.698 | 5290 | 0.984 | > 10 | 0.962 | > 5.12 | 0.881 | > 10.2 | 0.98 | > 1000 | – | –
GAK (melanoma, adherent) | 0.974 | > 10 | 0.635 | 145 | 0.985 | > 20 | 0.671 | 727 | 0.718 | 255 | 0.746 | 6080 | 0.981 | > 10 | 0.886 | > 5.12 | – | – | 0.986 | > 1000 | 0.974 | > 10
H290 (mesothelioma, adherent) | 0.987 | > 10 | 0.846 | 638 | – | – | 0.518 | 279 | 0.626 | 138 | 0.182 | 155 | 0.989 | > 10 | – | – | 0.91 | > 10.2 | 0.988 | > 1000 | 0.932 | > 10
H2795 (mesothelioma, adherent) | 0.958 | > 10 | 0.54 | 80 | 0.864 | 17 | 0.753 | 1320 | 0.822 | 589 | – | – | 0.913 | > 10 | 0.774 | 1.98 | 0.642 | 1.57 | 0.986 | > 1000 | 0.905 | > 10
HCC-78 (lung adenocarcinoma, adherent) | 0.967 | > 10 | 0.691 | 238 | 0.967 | > 20 | 0.51 | 267 | 0.686 | 235 | 0.408 | 668 | 0.967 | > 10 | 0.982 | > 5.12 | 0.811 | 6.64 | 0.97 | > 1000 | – | –
IST-SL2 (small cell lung carcinoma, suspension) | 0.968 | > 10 | 0.983 | > 1000 | – | – | 0.425 | – | 0.521 | 72.8 | 0.133 | 88.3 | 0.987 | > 10 | – | – | 0.772 | 3.92 | 0.973 | > 1000 | 0.971 | > 10
JHU-029 (head and neck, adherent) | 0.977 | > 10 | 0.961 | > 1000 | – | – | 0.664 | 798 | 0.283 | 13.4 | – | – | 0.957 | > 10 | – | – | – | – | 0.974 | > 1000 | 0.876 | > 10
K5 (thyroid, adherent) | 0.746 | 3.06 | 0.723 | 260 | 0.952 | > 20 | 0.441 | 174 | 0.558 | 91.5 | – | – | 0.987 | > 10 | 0.986 | > 5.12 | 0.918 | > 10.2 | 0.982 | > 1000 | 0.866 | 8.29
KCL-22 (chronic myeloid leukaemia, suspension) | 0.948 | > 10 | 0.951 | > 1000 | 0.94 | > 20 | 0.364 | 113 | 0.688 | 195 | 0.187 | 180 | 0.991 | > 10 | 0.924 | > 5.12 | 0.599 | 1.14 | 0.982 | > 1000 | – | –
KP-N-YN (neuroblastoma, adherent) | 0.813 | 6.05 | 0.941 | > 1000 | 0.971 | > 20 | 0.816 | 2480 | 0.914 | > 1020 | 0.964 | > 20000 | 0.986 | > 10 | 0.98 | > 5.12 | 0.947 | > 10.2 | 0.985 | > 1000 | – | –
MDA-MB-330 (breast, adherent) | 0.95 | > 10 | 0.462 | 48.4 | 0.979 | > 20 | 0.781 | 1910 | 0.752 | 383 | 0.732 | 6390 | 0.978 | > 10 | 0.986 | > 5.12 | 0.959 | > 10.2 | 0.984 | > 1000 | – | –
MDA-MB-415 (breast, adherent) | 0.976 | > 10 | 0.767 | 500 | 0.983 | > 20 | 0.789 | 2470 | 0.929 | > 1020 | 0.945 | > 20000 | 0.983 | > 10 | 0.983 | > 5.12 | 0.983 | > 10.2 | 0.98 | > 1000 | – | –
NB6 (neuroblastoma, adherent) | 0.892 | > 10 | 0.956 | > 1000 | 0.895 | > 20 | 0.707 | 1110 | 0.848 | > 1020 | 0.641 | 3370 | 0.984 | > 10 | 0.982 | > 5.12 | 0.875 | > 10.2 | – | – | 0.96 | > 10
NEC8 (testis, adherent) | 0.972 | > 10 | 0.91 | > 1000 | 0.927 | > 20 | 0.589 | 420 | 0.403 | 36.3 | 0.876 | 14800 | 0.976 | > 10 | 0.879 | 3.9 | 0.779 | 3.55 | – | – | 0.911 | > 10
NH-12 (neuroblastoma, adherent) | 0.983 | > 10 | 0.88 | > 1000 | 0.886 | > 20 | 0.797 | 2150 | 0.54 | 83.5 | 0.431 | 791 | 0.984 | > 10 | 0.719 | 1.45 | 0.702 | 2.56 | – | – | 0.888 | > 10
OS-RC-2 (kidney, adherent) | 0.975 | > 10 | 0.691 | 275 | 0.912 | > 20 | 0.706 | 1260 | 0.621 | 160 | 0.642 | 3700 | 0.938 | > 10 | – | – | 0.808 | 8.56 | 0.908 | > 1000 | 0.966 | > 10
RKN (ovary, adherent) | 0.793 | 4.85 | 0.92 | > 1000 | 0.959 | > 20 | 0.553 | 351 | 0.771 | 415 | – | – | 0.979 | > 10 | 0.791 | 2.46 | 0.843 | 7.85 | 0.984 | > 1000 | 0.963 | > 10
SCC90 (head and neck, adherent) | 0.978 | > 10 | 0.77 | 548 | – | – | 0.87 | > 4000 | 0.733 | 398 | – | – | 0.981 | > 10 | – | – | – | – | 0.976 | > 1000 | 0.932 | > 10
SK-PN-DW (Ewing sarcoma, adherent) | 0.983 | > 10 | 0.966 | > 1000 | 0.947 | > 20 | 0.508 | 263 | 0.379 | 29.3 | 0.142 | 89.5 | 0.869 | 9.86 | 0.972 | > 5.12 | 0.818 | 6.03 | 0.974 | > 1000 | – | –
SNU-387 (liver, adherent) | 0.959 | > 10 | 0.914 | > 1000 | 0.963 | > 20 | 0.559 | 370 | 0.689 | – | 0.448 | 885 | 0.984 | > 10 | 0.742 | 1.76 | 0.528 | 0.772 | 0.98 | > 1000 | – | –
STS-0421 (soft tissue, adherent) | 0.896 | > 10 | 0.924 | > 1000 | – | – | 0.698 | 998 | 0.406 | 33.8 | – | – | 0.981 | > 10 | – | – | – | – | 0.98 | > 1000 | 0.881 | > 10
SW982 (soft tissue, adherent) | 0.754 | 3.46 | 0.426 | 38.9 | 0.956 | > 20 | 0.242 | 43.7 | 0.184 | 6.98 | – | – | 0.959 | > 10 | 0.967 | > 5.12 | 0.698 | 2.35 | 0.983 | > 1000 | 0.899 | > 10
